Assay results: PubChem BioAssay AID1030 (National Center for Advancing Translational Sciences (NCATS), 2008)
Hit rate of the full screen: of about 220,000 compounds, about 16,000 (7.3%) were called active. The inconclusive results got no clear call from the source; some entries with a clear call stand among them for comparison. Calls come from the whole dose curve; as a rule, active = well fitted inhibition curve with a large enough effect (not every such curve was filed as active); inconclusive = small, poorly fitted or top-dose-only effect, or another doubt; inactive = no such curve, though single readings can be large or run the other way. Potencies of inconclusive entries are left out as doubtful fits. Where a structure was tested more than once in an assay, its records may differ in their call.

Biological target: Aldehyde dehydrogenase 1A1 (Homo sapiens) (UniProt P00352)
Chain of UniProt P00352 (P00352 whole entry, looked up): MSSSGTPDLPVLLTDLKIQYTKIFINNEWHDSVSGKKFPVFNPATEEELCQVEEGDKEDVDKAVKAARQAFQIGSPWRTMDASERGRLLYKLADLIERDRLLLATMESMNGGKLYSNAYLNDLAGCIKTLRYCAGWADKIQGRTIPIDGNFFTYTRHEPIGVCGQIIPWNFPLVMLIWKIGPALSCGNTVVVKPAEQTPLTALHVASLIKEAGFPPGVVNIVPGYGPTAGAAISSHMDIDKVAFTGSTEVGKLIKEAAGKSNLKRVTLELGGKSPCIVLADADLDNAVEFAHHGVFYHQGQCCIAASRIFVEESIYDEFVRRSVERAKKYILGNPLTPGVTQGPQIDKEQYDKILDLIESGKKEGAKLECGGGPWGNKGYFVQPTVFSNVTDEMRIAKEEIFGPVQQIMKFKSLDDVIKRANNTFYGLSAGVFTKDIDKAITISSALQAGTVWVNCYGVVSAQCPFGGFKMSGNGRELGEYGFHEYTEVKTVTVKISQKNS
Assay: qHTS Assay for Inhibitors of Aldehyde Dehydrogenase 1 (ALDH1A1);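 for activity, negative = inhibition: plate controls were no enzyme wells and a reference inhibitor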
Settings: Purified ALDH1A1, NADH fluorescence, propionaldehyde substrate; series mostly up to 75.3 µM; activity, negative = inhibition: at the top concentration
Potency is the fitted concentration of half-maximal effect; tags give direction and shape of the fitted curve.

| SMILES | Potency | activity, negative = inhibition |
| --- | --- | --- |
| COc1ccccc1NC(=S)N(CCCN(C)C)Cc1cc2cc3c(cc2[nH]c1=O)OCO3 | inconclusive [inhibitor, single point] | – |
| O=C(CSc1nccc(=O)[nH]1)N1c2ccccc2CCc2ccccc21 | – | inactive: -7.09% |
| CC(C)c1ccc(NC(=O)C(c2ccccc2)N2CC(=O)Nc3ccccc32)cc1 (stereo not drawn) | inconclusive [inhibitor, single point] | – |
| O=C(Nc1ccc2oc(-c3cccnc3)nc2c1)c1ccc(Br)o1 | inconclusive [inhibitor, single point] | – |
| Cc1cc(C)c(C#N)c(SCC(=O)c2ccccc2)n1 | active: 22.4 µM | – |
| CCn1c(Cc2cccn2C)nnc1SCC(=O)c1ccc(C)cc1 | active: 10 µM | – |
| COc1ccc(N2CCCn3c2nc2c3c(=O)n(Cc3ccc(F)cc3)c(=O)n2C)c(OC)c1 | inconclusive [inhibitor, single point] | – |
| CC1=CC(C)C2C(=O)N(O)C(=O)C2C1 (stereo not drawn) | active: 14.1 µM | – |
| COc1ccc(C2c3[nH]c4ccccc4c3CCN2Cc2cccn2-c2ncccn2)cc1C (stereo not drawn) | inconclusive [inhibitor, single point] | – |
| O=C(Nc1ccc(O)c(-c2nc3ccccc3s2)c1)C1=COCCO1 | – | inactive: -7.22% |
| O=C1OCC2=C1C(c1ccc(F)cc1)CC(=O)N2c1ccccc1 (stereo not drawn) | – | inactive: 6.31% |
| O=C(COC(=O)c1ccccc1O)Nc1ccc(OC(F)F)cc1 | inconclusive [inhibitor, single point] | – |
| COc1ccccc1NS(=O)(=O)c1ccc(O)c(C(=O)OCC(=O)c2ccc(Cl)cc2Cl)c1 | active: 1.12 µM | – |
| Cc1ccc(S(=O)(=O)Nc2ccc3c(c2)CCC3)cc1 | active: 11.2 µM | – |
| C=CCn1c(=S)[nH]c2scc(-c3ccc(C)o3)c2c1=O | inconclusive [inhibitor, partial curve] | – |
| COc1ccc(C(=O)CSc2nnc(Cc3ccccc3)o2)cc1 | inconclusive [inhibitor, partial curve] | – |
| O=C(NCCN1CCCCCC1)c1ccc(CS(=O)(=O)c2ccc(Br)cc2)o1 | inconclusive [inhibitor, full curve] | – |
| CC(C)c1nc(N2CCOCC2)c(C#N)c2c1COC(C)(C)C2 | inconclusive [inhibitor, partial curve] | – |
| CCc1ccc(NC(=O)Cn2ncc3c4ccccc4n(C)c3c2=O)cc1 | – | inactive: -4.92% |
| COc1ccc(NC(=O)/C(C#N)=C/c2cc(C)n(-c3ccc(N4CCOCC4)c([N+](=O)[O-])c3)c2C)cc1 | – | inactive: -3.56% |
| COc1ccc(C=O)cc1COc1c(F)c(F)cc(F)c1F | inconclusive [inhibitor, single point] | – |
| N#C/C(=C/c1cc[nH]c1)C(N)=S | inconclusive [inhibitor, single point] | – |
| CC1=CC(C)C(C(=O)O)C(C(=O)O)C1 (stereo not drawn) | inconclusive [inhibitor, single point] | – |
| COC(=O)c1nnn(-c2nonc2N)c1CSc1nc2ccccc2s1 | inconclusive [inhibitor, partial curve] | – |
| COc1ccccc1NC(=S)N1CCN(c2ccccn2)CC1 | inconclusive [inhibitor, partial curve] | – |
| O=C(O)C1CCC(Cn2c(SCc3cc(=O)n4cc(Br)ccc4n3)nc3ccsc3c2=O)CC1 (stereo not drawn) | – | inactive: 1.7% |

| SMILES | Potency | activity, negative = inhibition |
| --- | --- | --- |
| O=C(CNC(=S)N(Cc1ccccc1F)C1CCCCC1)NCC1CCCO1 (stereo not drawn) | active: 7.08 µM | – |
| COc1cc2[nH]c(=S)n(Cc3ccc(C)cc3)c(=O)c2cc1OC | – | inactive: 1.26% |
| CSC1=NCCN1C(=O)c1ccc(S(=O)(=O)N2CCOCC2)cc1 | inconclusive [inhibitor, partial curve] | – |
| O=C(c1ccc(CSc2ccccc2)cc1)N1CCCCCC1 | inconclusive [inhibitor, single point] | – |
| COc1ccccc1OCCn1cc(/C=C(\C#N)C(=O)NCc2ccco2)c2ccccc21 | inconclusive [inhibitor, single point] | – |
| COc1ccc(CNc2ccnc(-c3ccc4c(c3)OCO4)n2)c(OC)c1 | – | inactive: -14.1% |
| CC(=O)Nc1ccccc1-c1nc2ccc(C(=O)N3CCN(c4cccc(C)c4)C(C)C3)cc2[nH]c1=O (stereo not drawn) | – | inactive: -2.3% |
| CSc1ccc(/C=C/C(=O)OCC(=O)NC(C)C)cc1 | inconclusive [inhibitor, partial curve] | – |
| O=C(CN1CCN(Cc2ccccc2)CC1)Nc1ccc2c(c1)CCC2 | inconclusive [inhibitor, single point] | – |
| O=C(CSc1nc2ccccc2o1)N1CCN(C(=O)c2ccco2)CC1 | active: 12.6 µM | – |
| CCCCCC(=O)Nc1ccc2oc(-c3cccnc3)nc2c1 | inconclusive [inhibitor, partial curve] | – |
| CCOC(=O)N1CCC(NC(=O)C(NC(=O)C2CCCCC2)C(C)C)CC1 (stereo not drawn) | – | inactive: 11% |
| COc1ccc(S(=O)(=O)NCc2cc(-c3ccccc3Cl)no2)cc1 | inconclusive [inhibitor, partial curve] | – |
| Cc1cc(C)c(C)c(S(=O)(=O)NCC(=O)N2CCCC2)c1C | – | inactive: 0.685% |
| COCCCN=C1NN=C(c2cc(C)n(-c3ccccc3F)c2C)CS1 | active: 25.1 µM | – |
| CC(=O)N/C(=C/c1ccc2c(c1)OCO2)C(=O)O | – | inactive: -0.314% |
| COc1cccc(-c2c[nH]c(=O)[nH]c2=O)c1 | inconclusive [inhibitor, single point] | – |
| O=C(CCN1C(=O)C2C3CCC(C3)C2C1=O)Nc1ccc([N+](=O)[O-])cc1 (stereo not drawn) | active: 3.55 µM | – |
| Cn1c(CCC(=O)OCC(=O)NCc2ccc3c(c2)OCO3)nc(=O)c2ccccc21 | – | inactive: 6.79% |
| O=C(COc1ccc(Br)cc1Cl)NC(=O)Nc1ccc2c(c1)OCCO2 | – | inactive: 13.3% |
| O=C(O)c1ccncc1.O=C(O)c1ccncc1.[Cl][Pt]([Cl])([Cl])[Cl] | active: 2.24 µM | – |
| Cc1ccc(C(=O)CSc2nnc(COc3cc(C)cc(C)c3)o2)cc1 | inconclusive [inhibitor, single point] | – |
| Nc1nc(N)c2[nH]cnc2n1 (tested in a mixture with another compound) | – | inactive: 11% [at 13.5 µM] |
| CC(=Nc1ccccc1)C1=C(O)CC(C)(C)CC1=O | – | inactive: 3.1% |
| Cc1cc([N+](=O)[O-])ccc1NC(=S)NC(=O)Cc1ccccc1 | inconclusive [inhibitor, single point] | – |
| C=CCSCC(N)C(=O)O (stereo not drawn) | inconclusive [inhibitor, single point] | – |

| SMILES | Potency | activity, negative = inhibition |
| --- | --- | --- |
| CC(Nc1nc(N2CCCC2)nc2ccccc12)c1ccccc1 (stereo not drawn) | – | inactive: -8.47% |
| O=C(O)CCn1c(-c2ccccc2)cc2ccccc21 | inconclusive [inhibitor, partial curve] | – |
| Cc1ccc(C(=O)Nc2nnc(-c3ccco3)o2)cc1C | – | inactive: 3.05% |
| COc1cc2cc(C(c3nnnn3C3CCCC3)N(C)C3CCCCC3)c(=O)[nH]c2cc1OC (stereo not drawn) | inconclusive [inhibitor, partial curve] | – |
| Cn1c(=O)[nH]c(=O)c2c1nc(N1CCCCC1)n2CCOc1ccccc1 | inconclusive [inhibitor, single point] | – |
| CC1(C)OC(C)(C)/C(=C/Nc2ccc(O)cc2)C1=O | – | inactive: -16.9% |
| CCCn1nc2cc(C(=O)NC3CCc4ccccc43)ccc2c1OCC (stereo not drawn) | inconclusive [inhibitor, single point] | – |
| O=C1C(Nc2ccccc2)=C(N2CCCCC2)C(=O)c2ccccc21 | active: 20 µM | – |
| COc1ccc(CNC(=O)CCSCc2cccc(Cl)c2)cc1 | inconclusive [inhibitor, single point] | – |
| Cc1noc(NS(=O)(=O)c2ccc(NC(=O)CSc3nc4ccccc4[nH]3)cc2)c1C | inconclusive [inhibitor, single point] | – |
| COC(=O)C(NC(=O)c1ccco1)(Nc1ccc(Br)cn1)C(F)(F)F (stereo not drawn) | – | inactive: 15.2% |
| O=Cc1cn(-c2ccccc2)nc1-c1ccncc1 | active: 2.51 µM | – |
| Cc1nc(C)n(C(=O)N(c2ccccc2)c2ccccc2)n1 | – | inactive: 2.07% |
| Cc1cc(C)c(NC(=O)C2CSCCS2)c(C)c1 (stereo not drawn) | – | inactive: -3.59% |
| Cc1ccc(S(=O)(=O)N2CCCCC2)cc1NC(=O)Cn1c(=O)cnc2ccccc21 | inconclusive [inhibitor, partial curve] | – |
| Cc1cccc(/C=C\c2nc3ccccc3c(=O)[nH]2)c1 | inconclusive [inhibitor, partial curve] | – |
| CC(=O)c1cccc(Nc2nc(-c3cccc([N+](=O)[O-])c3)cs2)c1 | inconclusive [inhibitor, single point] | – |
| CN(C)CC(O)COC(c1ccc(Cl)cc1)c1ccc(Cl)cc1 (stereo not drawn) | – | inactive: 5.2% |
| Cc1cc(N2CCCC2)n2nc(C)nc2n1 | – | inactive: 1.24% |
| COc1cc(NCCCC(C)N)c2ncccc2c1 (stereo not drawn) | active: 22.4 µM | – |
| N#C/C(C(=S)Nc1ccccc1)=C1/NN=C(N2CCOCC2)N1c1ccccc1 | inconclusive [inhibitor, single point] | – |
| Cc1cccc(-n2cnc(C(=O)NC3CCCCCC3)c2)n1 | inconclusive [inhibitor, partial curve] | – |
| Cc1nc(NC(=O)C(C)Oc2cccc(Cl)c2)sc1C(=O)N(C)C (stereo not drawn) | – | inactive: -7.45% |
| Cc1ccc(CNC(=O)COC(=O)c2ccc(S(=O)(=O)N(C)C)cc2)cc1 | – | inactive: 2.18% |
| C/C(=N\Nc1ccc([N+](=O)[O-])cc1)c1cccc(N)c1 | – | inactive: -18.4% |
| Cc1n[nH]c(=O)nc1NCC1CCCO1 (stereo not drawn) | inconclusive [inhibitor, single point] | – |
